{"source": "the supplement of paper PMC10338343", "note": "± gives the standard deviation. In all, about 6,600 sequences were measured (“pre-steady-state target cleavage rate”: median about 0.07, highest 2% from about 0.72 on). The entries are a selection whose mix differs from that of the whole data set.", "data": [{"test_system": "MIWI (PIWIL1) piRISC loaded with Kctd7 piRNA (30 nt)", "experiment": "pre-steady-state target cleavage rate (min^-1); MIWI and MILI are mouse PIWI proteins and EfPiwi is from a freshwater sponge; tags in brackets are library labels; higher = faster piRNA-guided slicing of the target", "conditions": "guide: Kctd7 piRNA 5'p-UGUUAAUCUCUCAGAGAAGGUGACAGUGAU; auxiliary factor: 500 nM mouse GTSF1", "procedure": "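Cleave-'n-Seq: a library of target RNAs (target site embedded in constant flanks, ACAGCATTCCGCGTTAGTGATATCCG... 5' flank; DNA-blocked outside the site) at 0.1 nM was incubated with 1 nM active mouse MILI or MIWI piRISC (synthetic 5'-monophosphorylated piRNA guide) with or without 500 nM mouse GTSF1 at 33 °C for 1 min to 16 h. Uncleaved targets were sequenced and normalised to non-target controls, and the pooled three trials were fitted to a burst-and-steady-state model to give the pre-steady-state cleavage rate (min^-1; k3 is constrained to at most 1e-4). Sequence is the target site only; target names encode pairing extent (gX:gY) and contiguous / 1-mismatch / 2-mismatch / bulge geometry. Fits with R² ≤ 0 are excluded.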", "values": [{"sequence": "UAGUGACAGACCUUCUCUGAGAGAUUAAGCA", "pre-steady-state target cleavage rate": "0.0779 ± 0.016"}, {"sequence": "UAGUGUGUCACCUUCUCUGAGAAGAUUAACA", "pre-steady-state target cleavage rate": "0.017 ± 0.005"}, {"sequence": "UAGUGAGUCUGCUUCUCUGAGAGAUUAUGA", "pre-steady-state target cleavage rate": "0.00288 ± 0.0022"}, {"sequence": "UAGUCAGUCACCUUCUCUGAGAGAUUAAGA", "pre-steady-state target cleavage rate": "0.141 ± 0.02"}, {"sequence": "UAGACUCUCACCUUCUGUGAGAGAUUAACA", "pre-steady-state target cleavage rate": "0.093 ± 0.012"}, {"sequence": "UUCACUGUCACCUUCUCUGAGAGAUAUUGA [g6:g29:cont:t1A]", "pre-steady-state target cleavage rate": "0.0824 ± 0.022"}, {"sequence": "UAGUGAGUCAGGAUCUCUGAGAGAUUAACA", "pre-steady-state target cleavage rate": "0.00821 ± 0.0023"}, {"sequence": "UACACUGUCACCUUACUCUGAGAGAUUAACA", "pre-steady-state target cleavage rate": "0.579 ± 0.044"}, {"sequence": "UAGUCUGUCACCUUCACUGAGAGAUAAACA", "pre-steady-state target cleavage rate": "0.183 ± 0.019"}, {"sequence": "AUCUCUGUCACCUUCACUGAGAGAUUAACA", "pre-steady-state target cleavage rate": "0.493 ± 0.028"}, {"sequence": "UAGUGAGUCACCUUCUCUCAGAGAUUAUGA", "pre-steady-state target cleavage rate": "0.00636 ± 0.004"}, {"sequence": "UUCACAGUCACCUUCUCUGAGAGAUAUUGA", "pre-steady-state target cleavage rate": "0.117 ± 0.037"}, {"sequence": "UAGUGAGUCACCUUCUGUGACAGAUUAACA", "pre-steady-state target cleavage rate": "0.307 ± 0.053"}, {"sequence": "UACACUGUCACCUUCUCUGUGAGAUUAAGA", "pre-steady-state target cleavage rate": "0.0759 ± 0.02"}, {"sequence": "UACACUGUCACCUUCAGUGAGAGAUUAUGA", "pre-steady-state target cleavage rate": "0.00705 ± 0.005"}, {"sequence": "UAGUGUGUCCCUUCUCUGAGAGAUUAACA", "pre-steady-state target cleavage rate": "0.414 ± 0.031"}, {"sequence": "UAGACUGUCACCUUCUCGGAGAGAUUAACA", "pre-steady-state target cleavage rate": "0.218 ± 0.012"}, {"sequence": "UAGUGAGUCACCUUCUCUGUGAGUUUAACA", "pre-steady-state target cleavage rate": "0.11 ± 0.021"}, {"sequence": "UAGACUGUCACCUUCUCUGAGAGAUUACACA", "pre-steady-state target cleavage rate": "0.33 ± 0.047"}, {"sequence": "UAGUGACAGUGCUUCUCUGAGAGAUAAACA", "pre-steady-state target cleavage rate": "0.00612 ± 0.0024"}, {"sequence": "AUCACUGUGUCCUUCUCUGAGAGAUUAAGA", "pre-steady-state target cleavage rate": "0.161 ± 0.027"}, {"sequence": "AUCACUGUCACCUUCUCUGAGAGAUUAGACA", "pre-steady-state target cleavage rate": "0.392 ± 0.065"}, {"sequence": "UACACAGUCUCCUUCUCUGAGAGAUUAACA", "pre-steady-state target cleavage rate": "0.451 ± 0.032"}, {"sequence": "UUCACUGUCACCUUCUCUGAGAGUAAAUGA", "pre-steady-state target cleavage rate": "0.172 ± 0.048"}, {"sequence": "UACACUGUCAGGAUCUCUGAGAGAUUAACA", "pre-steady-state target cleavage rate": "0.132 ± 0.017"}, {"sequence": "UAGUGACAGUCCUUCUCUGAGAGGUUAACA", "pre-steady-state target cleavage rate": "0.0155 ± 0.0032"}, {"sequence": "UAGACAGUCACCUUCUCUGAGAGAUUUUGA", "pre-steady-state target cleavage rate": "0.0433 ± 0.0095"}, {"sequence": "UAGUGACAGUCCUUCUCUGAGAGAUAAUCA", "pre-steady-state target cleavage rate": "0.00284 ± 0.0022"}, {"sequence": "UAGACUGUCACCUUGUCUGAGAGAUUUUGA", "pre-steady-state target cleavage rate": "0.234 ± 0.066"}, {"sequence": "UAGUGACACACGUUCUCUGAGAGAUUUACA", "pre-steady-state target cleavage rate": "0.0739 ± 0.014"}, {"sequence": "UAGUGACAGUGGAACUCUGAGUCUUUAACA", "pre-steady-state target cleavage rate": "0.0246 ± 0.014"}, {"sequence": "UUCACUGUCACCUUCUCUGAGAAGAUUAACA", "pre-steady-state target cleavage rate": "0.0445 ± 0.0082"}, {"sequence": "UAGUCUGAGACCUUCUCUGAGAGAUUAAGA", "pre-steady-state target cleavage rate": "0.0609 ± 0.01"}, {"sequence": "UAGUCUGUGACCUUCUCUGAGAGAUAAACA", "pre-steady-state target cleavage rate": "0.266 ± 0.021"}, {"sequence": "UAGUGACAGACCAUCUCUGAGAGAUUAAGA", "pre-steady-state target cleavage rate": "0.00549 ± 0.0026"}, {"sequence": "UACACUGUCACCUUCUCUCUGAGAUUAAGA", "pre-steady-state target cleavage rate": "0.0125 ± 0.0076"}, {"sequence": "UUCACUGUCACCUUCUCUCAGAGAUUAAGA", "pre-steady-state target cleavage rate": "0.0566 ± 0.013"}, {"sequence": "UAGUGAGUCACCUACUGUGAGAGAUUAACA", "pre-steady-state target cleavage rate": "0.337 ± 0.022"}, {"sequence": "UACACUGUCAGCUUCUCUGAGAGAUUUUGA", "pre-steady-state target cleavage rate": "0.009 ± 0.0033"}, {"sequence": "UUCACAGUCACCUUCUCUGUGAGAUUAACA", "pre-steady-state target cleavage rate": "0.116 ± 0.019"}, {"sequence": "AUCACUGUCACCUUCUCAGAGAGAUUUACA", "pre-steady-state target cleavage rate": "0.279 ± 0.042"}, {"sequence": "UUCACUGUCACCAUCUCUGAGAGAUUUUGA", "pre-steady-state target cleavage rate": "0.0248 ± 0.0096"}, {"sequence": "AUCACUGUCACCUACUCUGAGAGAUUUACA", "pre-steady-state target cleavage rate": "0.393 ± 0.063"}, {"sequence": "UAGUCACUCACCUUCUCUGAGAGAUAUUGA", "pre-steady-state target cleavage rate": "0.0175 ± 0.0051"}, {"sequence": "UAGUCUGUCACCUACUCUGAGAGUUUAACA", "pre-steady-state target cleavage rate": "0.276 ± 0.047"}, {"sequence": "UAGUGACACACCUUCACUCAGAGAUUAACA", "pre-steady-state target cleavage rate": "0.0045 ± 0.004"}, {"sequence": "UAGUGACAGACCUUCUAUGAGAGAUUAACA", "pre-steady-state target cleavage rate": "0.0147 ± 0.0058"}, {"sequence": "UUCUGUGUCACCUUCUCUGAGAGAUUAUGA", "pre-steady-state target cleavage rate": "0.114 ± 0.018"}, {"sequence": "UAGUGUGUCUCCUUCUCUGAGAGAUUUACA", "pre-steady-state target cleavage rate": "0.0537 ± 0.011"}, {"sequence": "UAGUGUGUCACCUUCUCUGAGAGAUAACA", "pre-steady-state target cleavage rate": "0.0418 ± 0.011"}, {"sequence": "UAGUGACAGACCUUCUCUGUGAGAUUAAGA", "pre-steady-state target cleavage rate": "0.00996 ± 0.0042"}, {"sequence": "UAGUGACACACCUUGUCUGAGAGAUUAUCA", "pre-steady-state target cleavage rate": "0.0171 ± 0.0084"}, {"sequence": "UAGUCUGUCAGGAUCUCUGAGAGAUUAACA", "pre-steady-state target cleavage rate": "0.0642 ± 0.0098"}, {"sequence": "UAGUGACUCACCUUCACUGAGACAUUAACA", "pre-steady-state target cleavage rate": "0.171 ± 0.024"}, {"sequence": "UAGUCUGUCACCUGUCUCUGAGAGAUUAACA", "pre-steady-state target cleavage rate": "0.545 ± 0.032"}, {"sequence": "UAGUGACUCACCUACUCUGAGAGAUUAAGA", "pre-steady-state target cleavage rate": "0.046 ± 0.011"}, {"sequence": "UAGUGAGUCACCUUCUCUGAGACAUUAACA", "pre-steady-state target cleavage rate": "0.224 ± 0.022"}, {"sequence": "UAGUGACAGUGCUUCUCUGAGAGAUUAACC [g2:g19:cont:t1C]", "pre-steady-state target cleavage rate": "0.0079 ± 0.0021"}, {"sequence": "UAGUCUGUCACCUUCUCUGAGAAAUUAACA", "pre-steady-state target cleavage rate": "0.271 ± 0.03"}, {"sequence": "UACACUGUCACCUUCUCAGAGAGAUUUACA", "pre-steady-state target cleavage rate": "0.162 ± 0.026"}, {"sequence": "UAGACUGUCACCUUCUCUGGAGAUUAACA", "pre-steady-state target cleavage rate": "0.191 ± 0.015"}, {"sequence": "UAGUCUGUCACCUUCUCUUAGAGAUUAACA", "pre-steady-state target cleavage rate": "0.319 ± 0.02"}, {"sequence": "UAGUGACUCACCUUCUCUGAGAGAUUAAAA", "pre-steady-state target cleavage rate": "0.122 ± 0.015"}, {"sequence": "UAGUCUGUCGACCUUCUCUGAGAGAUUAACA", "pre-steady-state target cleavage rate": "0.195 ± 0.035"}, {"sequence": "UAGUGACAGACCUUCUGUGAGACAUUAACA", "pre-steady-state target cleavage rate": "0.0295 ± 0.0071"}, {"sequence": "UAGUGACUCACCUUCUCUGAGAGACUAACA", "pre-steady-state target cleavage rate": "0.21 ± 0.039"}, {"sequence": "UAGUCUGUCACCUACUGUGAGAGAUUAACA", "pre-steady-state target cleavage rate": "0.198 ± 0.014"}, {"sequence": "UAGUGACUCACGUUCUCUGAGUGAUUAACA", "pre-steady-state target cleavage rate": "0.00871 ± 0.003"}, {"sequence": "UAGUCUGUCACCUUCUCUAAGAGAUUAACA", "pre-steady-state target cleavage rate": "0.455 ± 0.018"}, {"sequence": "UAGUCUGUCACGUUCUCUGAGAGAUAAACA", "pre-steady-state target cleavage rate": "0.262 ± 0.027"}, {"sequence": "UUCACUGUCACCUUCUCGAGAGAUUAACA", "pre-steady-state target cleavage rate": "0.0841 ± 0.013"}, {"sequence": "UAGUGACAGUCCUUCUGUGAGAGAUUUACA", "pre-steady-state target cleavage rate": "0.00915 ± 0.0023"}]}]}
